In the supplement of paper PMC4967469:
Lines with a small IC50 respond at low doses; fits outside the tested doses are given as limits. AUC sums up the same curve from the lowest dose to the 256-fold higher top dose; values near 1 show little effect. For some assays here: A top dose marked as inferred is not printed in the source and was worked back from the curve model. For some assays here: Where an entry number is given, a second screen of the drug exists; the two often differ.

Columns and labels:
Experiment in all cases: Viability of human cancer cell lines after 72 h of drug (GDSC screen)
SB-505124 = compound: Cc1cccc(-c2[nH]c(C(C)(C)C)nc2-c2ccc3c(c2)OCO3)n1 [SB-505124]; details: top dose 10 µM; top dose inferred
Experimental: (§1)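 Human cancer cell lines in 384-well plates, medium with 10% serum, drug for 72 h over a 256-fold dose range (nine 2-fold or five 4-fold steps up to the top dose). Adherent lines were fixed and stained with the nucleic acid dye Syto60, suspension lines read with resazurin; signal relative to control wells, capped at 0 and 100%. One two-parameter sigmoid per drug and line, fitted in a mixed model over all curves with the slope shared within a line.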

BX-795 = compound: O=C(NCCCNc1nc(Nc2cccc(NC(=O)N3CCCC3)c2)ncc1I)c1cccs1 [BX-795]; details: top dose 5 µM; top dose inferred
Experimental: as §1

Tretinoin = compound: CC1=C(/C=C/C(C)=C/C=C/C(C)=C/C(=O)O)C(C)(C)CCC1 [Tretinoin]; details: top dose 10 µM; top dose inferred
Experimental: as §1

PI-103 = compound: Oc1cccc(-c2nc(N3CCOCC3)c3oc4ncccc4c3n2)c1 [PI-103]; details: top dose 10.24 µM
Experimental: as §1

UNC0638 = compound: COc1cc2c(NC3CCN(C(C)C)CC3)nc(C3CCCCC3)nc2cc1OCCCN1CCCC1 [UNC0638]
Experimental: as §1

GSK690693 = compound: CCn1c(-c2nonc2N)nc2c(C#CC(C)(C)O)ncc(OC[C@H]3CCCNC3)c21 [GSK690693]; details: top dose 10.24 µM; top dose inferred
Experimental: as §1

[1] = top dose 20 µM, screen: GDSC drug entry 1236, top dose inferred
[2] = top dose 40 µM, screen: GDSC drug entry 245

Row | Cell Line | AUC (SB-505124) | IC50 (SB-505124) [µM] | AUC (BX-795) | IC50 (BX-795) [µM] | AUC (Tretinoin) | IC50 (Tretinoin) [µM] | AUC (PI-103) | IC50 (PI-103) [µM] | AUC (UNC0638; [1]) | IC50 (UNC0638; [1]) [µM] | AUC (UNC0638; [2]) | IC50 (UNC0638; [2]) [µM] | AUC (GSK690693) | IC50 (GSK690693) [µM]
1 | MS751 (cervix, adherent) | 0.977 | > 10 | 0.925 | > 5 | 0.979 | > 10 | 0.989 | > 10.2 | 0.909 | > 20 | 0.767 | 13.7 | 0.99 | > 10.2
2 | NB12 (neuroblastoma, adherent) | 0.937 | > 10 | 0.874 | > 5 | 0.98 | > 10 | 0.707 | 3.04 | 0.965 | > 20 | 0.806 | 29.5 | 0.921 | > 10.2
3 | NCC021 (kidney, adherent) | 0.973 | > 10 | 0.729 | 1.59 | 0.975 | > 10 | 0.446 | 0.444 | 0.958 | > 20 | 0.853 | 39.7 | 0.946 | > 10.2
4 | NCI-H28 (mesothelioma, adherent) | 0.978 | > 10 | 0.799 | 3.31 | 0.939 | > 10 | 0.919 | > 10.2 | 0.786 | 11.7 | 0.849 | > 40 | 0.968 | > 10.2
5 | NCI-H358 (lung adenocarcinoma, adherent) | 0.973 | > 10 | 0.976 | > 5 | 0.946 | > 10 | 0.44 | 0.431 | 0.939 | > 20 | 0.75 | 14.3 | 0.934 | > 10.2
6 | NCI-H460 (large cell lung carcinoma, adherent) | 0.989 | > 10 | 0.841 | 3.01 | 0.99 | > 10 | 0.989 | > 10.2 | 0.862 | 14.5 | 0.952 | > 40 | 0.99 | > 10.2
7 | NCI-H520 (lung squamous cell carcinoma, adherent) | 0.986 | > 10 | 0.987 | > 5 | 0.987 | > 10 | 0.189 | 0.0723 | 0.832 | 13.4 | 0.603 | 4.85 | 0.663 | 1.84
8 | NCI-H596 (lung adenocarcinoma, adherent) | 0.979 | > 10 | 0.934 | > 5 | 0.967 | > 10 | 0.401 | 0.315 | 0.826 | 17.2 | 0.7 | 10.9 | 0.82 | 8.28
9 | NCI-H630 (large intestine, adherent) | 0.987 | > 10 | 0.941 | > 5 | 0.979 | > 10 | 0.969 | > 10.2 | 0.982 | > 20 | 0.906 | > 40 | 0.988 | > 10.2
10 | NCI-H650 (lung adenocarcinoma, adherent) | 0.985 | > 10 | 0.822 | 3.3 | 0.937 | > 10 | 0.539 | 0.827 | 0.924 | > 20 | 0.853 | 36.2 | 0.983 | > 10.2
11 | NCI-H661 (large cell lung carcinoma, adherent) | 0.786 | 5.33 | 0.88 | > 5 | 0.964 | > 10 | 0.679 | 2.27 | 0.825 | 15.5 | 0.717 | 11.8 | 0.939 | > 10.2
12 | NCI-H727 (lung carcinoid, adherent) | 0.971 | > 10 | 0.907 | > 5 | 0.975 | > 10 | 0.699 | 3.4 | 0.778 | 14.6 | 0.783 | 30.9 | 0.959 | > 10.2
13 | NCI-H810 (large cell lung carcinoma, adherent) | 0.987 | > 10 | 0.832 | 3.02 | 0.985 | > 10 | 0.46 | 0.501 | 0.789 | 8.45 | 0.641 | 6.02 | 0.934 | > 10.2
14 | NCI-H838 (lung adenocarcinoma, adherent) | 0.929 | > 10 | 0.806 | 2.66 | 0.987 | > 10 | 0.987 | > 10.2 | 0.926 | > 20 | 0.882 | > 40 | 0.981 | > 10.2
15 | NCI-H841 (small cell lung carcinoma, adherent) | 0.947 | > 10 | 0.856 | 4.06 | 0.988 | > 10 | 0.593 | 1.15 | 0.987 | > 20 | 0.823 | 23.6 | 0.984 | > 10.2
16 | NCI-H1435 (lung adenocarcinoma, semi-adherent) | 0.992 | > 10 | 0.885 | 4.45 | 0.972 | > 10 | 0.993 | > 10.2 | 0.87 | 15.3 | 0.85 | 25.3 | 0.993 | > 10.2
17 | NCI-H1437 (lung adenocarcinoma, adherent) | 0.985 | > 10 | 0.881 | > 5 | 0.943 | > 10 | 0.519 | 0.72 | 0.874 | > 20 | 0.804 | 21 | 0.961 | > 10.2
18 | NCI-H1563 (lung adenocarcinoma, adherent) | 0.947 | > 10 | 0.97 | > 5 | 0.985 | > 10 | 0.902 | > 10.2 | 0.862 | > 20 | 0.793 | 22.3 | 0.945 | > 10.2
19 | NCI-H1568 (lung adenocarcinoma, adherent) | 0.979 | > 10 | 0.876 | > 5 | 0.949 | > 10 | 0.791 | 5.92 | 0.768 | 9.39 | 0.982 | > 40 | 0.976 | > 10.2
